Data published in the BET-seq Pho4 binding data (Le et al. 2018).
Some of the results follow. Values were computed here from the reads of four pooled replicates and scatter widely.

molecular target: T1, Pho4 (S. cerevisiae) (UniProt P07270); assay: relative binding free energy (BET-seq); higher = weaker binding; details: reference: library average
T1 sequence: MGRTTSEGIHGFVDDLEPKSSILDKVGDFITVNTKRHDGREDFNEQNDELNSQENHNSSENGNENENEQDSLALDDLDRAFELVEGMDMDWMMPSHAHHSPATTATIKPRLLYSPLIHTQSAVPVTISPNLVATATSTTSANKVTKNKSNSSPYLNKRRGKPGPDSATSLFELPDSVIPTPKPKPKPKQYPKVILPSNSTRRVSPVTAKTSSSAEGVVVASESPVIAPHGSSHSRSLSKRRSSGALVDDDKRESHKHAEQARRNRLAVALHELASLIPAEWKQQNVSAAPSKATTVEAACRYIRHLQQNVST

Row | Sequence | relative binding free energy [kcal/mol]
1 | TGCCTCACGTGGGGCG | 0.12
2 | GTAAACACGTGAGTGT | 0.22
3 | GGAGTCACGTGTAGCT | 0.21
4 | TTCTGCACGTGTGTGT | 0.07
5 | TGATTCACGTGGATGC | 0.45
6 | TCTCTCACGTGGGTGG | 0.06
7 | TCGAGCACGTGTGGTG | -0.09
8 | TTTTTCACGTGTTCTG | 0.31
9 | TTTGGCACGTGCAGAA | -0.17
10 | TGGGTCACGTGAACGA | 0.31
11 | AGGATCACGTGTTTGT | 0.19
12 | CTGTTCACGTGTAATG | 0.2
13 | AGTTTCACGTGCTTGT | 0.28
14 | CGTATCACGTGTTTGA | 0.13
15 | GATTTCACGTGCAGTT | 0.2
16 | AAGGGCACGTGTATAA | 0
17 | GGTGTCACGTGTGGAG | 0.17
18 | GGATACACGTGTTGTT | 0.12
19 | AGGGCCACGTGGTCGA | -0.05
20 | AGTGGCACGTGGAAGA | -0.07
21 | GTTGGCACGTGTAATT | 0.05
22 | TTATGCACGTGACGTA | 0
23 | GAGGTCACGTGGGAGT | 0.04

Row | Sequence | relative binding free energy [kcal/mol]
24 | TATGTCACGTGGGTCG | -0.15
25 | AGATACACGTGATGGT | 0.2
26 | AATGTCACGTGGCGGG | 0
27 | GGTTGCACGTGATAAA | 0.11
28 | GGATTCACGTGTTGGG | 0.35
29 | TTAAGCACGTGTTGGC | 0
30 | TAAGTCACGTGGACTG | 0.07
31 | TAATGCACGTGTGCCG | 0.14
32 | AATATCACGTGTGTGC | 0.24
33 | CGTCTCACGTGGTGTT | 0.21
34 | TTTCACACGTGGTTTC | 0.21
35 | GGAGTCACGTGACATG | 0.32
36 | TTGTACACGTGCGTAG | -0.09
37 | AGGCTCACGTGGGCGG | 0.02
38 | GATGACACGTGCTTGT | 0.05
39 | GGGAACACGTGGCTGT | -0.08
40 | CGGTTCACGTGGGGGA | 0.11
41 | ACGCGCACGTGTGGTG | -0.16
42 | TCAGTCACGTGGGAAG | -0.08
43 | GATTGCACGTGTTATA | 0.03
44 | GTTGTCACGTGTGGAA | 0.08
45 | TTAGACACGTGGCGGT | 0
46 | TAGTCCACGTGGGGAT | -0.12

Row | Sequence | relative binding free energy [kcal/mol]
47 | TATGACACGTGGAAAT | 0.26
48 | AGGGGCACGTGGTCTA | -0.27
49 | TTTGTCACGTGAGGTT | 0.33
50 | TGTATCACGTGGCGGG | 0.04
51 | TGGTGCACGTGTCAGC | -0.03
52 | TTGGCCACGTGAATTG | 0.28
53 | TCGGTCACGTGAGTGC | 0.22
54 | GGGCTCACGTGAAAGG | 0.35
55 | GGGTTCACGTGATATT | 0.44
56 | TTTTACACGTGGGGGC | 0.04
57 | CGATGCACGTGTGTGT | 0.04
58 | TTAATCACGTGTCATG | 0.01
59 | GATGTCACGTGAATTG | 0.22
60 | GATGTCACGTGGTTAG | 0.25
61 | TAACGCACGTGTGTGT | -0.3
62 | TTGATCACGTGCAGTG | 0.15
63 | AGAGTCACGTGGTTGG | 0.06
64 | TGCGTCACGTGTATTG | 0
65 | TTTTTCACGTGACTTT | 0.36
66 | ATTTCCACGTGTTGGT | 0.04
67 | CTGGTCACGTGCGAGG | 0.11
68 | TTTGTCACGTGAGTTC | 0.38
69 | GTCGTCACGTGTGCTT | 0.09

Row | Sequence | relative binding free energy [kcal/mol]
70 | GGCCTCACGTGCGGGG | 0.04
71 | TTGGTCACGTGTCCTG | 0.14
72 | TGGCTCACGTGGGTGT | 0.07
73 | AAAAGCACGTGGTGGC | 0.01
74 | GGGTGCACGTGGACGC | -0.07
75 | TAGGGCACGTGCAGGG | -0.09
76 | GGATACACGTGATGTG | 0.22
77 | GTGTACACGTGCGGAG | -0.16
78 | GAAGTCACGTGGTTTG | 0.2
79 | ATGGTCACGTGTGTTT | 0.21
80 | CTTTTCACGTGGATGC | 0.35
81 | TAGAGCACGTGGGTAA | -0.31
82 | TGAAGCACGTGGGGGT | -0.19
83 | AGCCGCACGTGGGGGC | -0.23
84 | TGTAGCACGTGTTCAT | -0.12
85 | TTGTTCACGTGCGGGC | 0.27
86 | CGTGTCACGTGGGGAC | -0.16
87 | GAAGACACGTGAGTTT | 0.25
88 | GGGGTCACGTGCAACG | 0.22
89 | TGATACACGTGTGTGT | 0.05
90 | GCTGGCACGTGGAGTA | -0.12
91 | ATGGACACGTGTTTAT | -0.05
92 | GATGACACGTGGCATG | 0.08

Row | Sequence | relative binding free energy [kcal/mol]
93 | TAAGGCACGTGAATAT | 0.13
94 | CTGCTCACGTGATTGG | 0.32
95 | GTTGGCACGTGGCAAG | -0.13
96 | AAGGCCACGTGAGGGT | 0.13
97 | GAGTTCACGTGGGACT | 0.31
98 | ACAGTCACGTGGGTGA | -0.18
99 | AGTTACACGTGGCAGG | -0.01
100 | AATAGCACGTGATGTC | 0.13
101 | ATGTGCACGTGTAAGA | 0.09
102 | GTGTACACGTGTGGTC | 0.03
103 | GTTGGCACGTGAGTGT | 0.19
104 | GGTCTCACGTGAGGGG | 0.28
105 | GTTGTCACGTGAATGG | 0.19
106 | GGGAGCACGTGGTTGC | -0.1
107 | TTGCACACGTGGGGGT | 0.01
108 | ACGTCCACGTGTGGGT | 0.07
109 | TTATGCACGTGAAGTG | 0.15
110 | GCTTGCACGTGAGCGG | 0.17
111 | TATAGCACGTGTGTTG | -0.07
112 | TATGCCACGTGTTGGC | 0.1
113 | ATCGTCACGTGGGTGA | -0.06
114 | GTGTCCACGTGGTACG | -0.02
115 | ACTGACACGTGGTGGT | -0.1
